The structures appear in SMILES notation. Several values for one entry are separate records, joined by “and”; a condition that tells them apart may be missing. Identical values can stand only once. Among all 110,000 compounds or so, about 230 (0.21%) showed an effect of 50% or more. The list shows a part of the results.
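Also: 30 min substrate incubation versus DMSO and 10 µM JCP410 controls.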

Chain of DPAP1 (Q8IIJ9 whole entry, looked up): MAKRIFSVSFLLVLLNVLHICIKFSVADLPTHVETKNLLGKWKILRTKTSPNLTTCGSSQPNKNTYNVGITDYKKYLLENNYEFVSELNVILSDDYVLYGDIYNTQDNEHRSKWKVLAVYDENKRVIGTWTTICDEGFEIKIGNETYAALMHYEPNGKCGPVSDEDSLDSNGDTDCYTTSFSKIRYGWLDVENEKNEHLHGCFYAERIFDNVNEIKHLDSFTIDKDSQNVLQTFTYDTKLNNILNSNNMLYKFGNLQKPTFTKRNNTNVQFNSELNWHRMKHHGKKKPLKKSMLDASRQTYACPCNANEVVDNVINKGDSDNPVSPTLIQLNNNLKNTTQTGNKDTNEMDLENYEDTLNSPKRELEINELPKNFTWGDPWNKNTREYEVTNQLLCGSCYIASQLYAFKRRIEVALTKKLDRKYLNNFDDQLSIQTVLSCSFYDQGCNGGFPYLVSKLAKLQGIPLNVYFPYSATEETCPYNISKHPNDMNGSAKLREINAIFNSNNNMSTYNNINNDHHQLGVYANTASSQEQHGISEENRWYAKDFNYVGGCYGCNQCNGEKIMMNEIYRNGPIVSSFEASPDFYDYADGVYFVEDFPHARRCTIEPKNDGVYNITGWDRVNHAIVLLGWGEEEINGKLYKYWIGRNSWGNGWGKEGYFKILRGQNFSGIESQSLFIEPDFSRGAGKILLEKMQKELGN

The experiment concerns the target DPAP1 (Plasmodium falciparum, UniProt Q8IIJ9). Nature of the experiment: primary screen, percent inhibition; read by cleavage of a fluorogenic dipeptide substrate; higher = more effect of the substance. The arrangement: species or system P. falciparum D10 trophozoite lysates; single well.
`Cn1c(=O)c2c(nc(SCC(=O)O)n2Cc2ccccc2Cl)n(C)c1=O`: the “% Inhibition @ 10 uM” value is 6.12%.
As to `C=CCNC(=O)c1cc2c(=O)n3ccccc3nc2n(CCOC)c1=N`, the “% Inhibition @ 10 uM” value amounted to 3.6%.
With `CCc1nc2ccccc2c(NC(=O)CN(C)CCc2ccc(OC)c(OC)c2)c1C`, the “% Inhibition @ 10 uM” value is listed as -0.216%.
The figure for `CC1CC2c3cccc(C(=O)O)c3C(=O)N2Cc2ccccc21` (stereo not shown) is 1.52%; for `CC(C)(C)C(=O)n1nc(-c2ccccc2)oc1=O` it is -1.82%.
The figure for `CC(C)N(Cc1ccccc1)C(=O)c1ccc(Cl)cc1Cl` is -0.833%; for `COc1ccc(NC(=O)Nc2ccc(Cl)c(Cl)c2)cc1OC` it is -17.2%.
The figure for `O=S(=O)(c1ccc(Oc2ccccc2)cc1)N1CCCC1` is -3.44%; for `CCCNC(=O)CN(C)S(=O)(=O)c1c(C)cc(C)cc1C` it is 2.36%; for `Cc1[nH]c2ccccc2c1/C=C1/SC(=O)N(CC(=O)N2CCCC2)C1=O` it is 9.65%.
As for `Cc1ccc(N2C(=O)c3ccc(C(=O)O)cc3C2=O)c(C)c1`, the “% Inhibition @ 10 uM” value came out at 3.17%.
With `CCOC(=O)C1=CN(Cc2ccc(OC)cc2)C=C(C(=O)OCC)C1c1cccc(F)c1` the figure was -5.05%.
The figure for `COc1ccc(N(CC(=O)Nc2ccccc2Cl)S(=O)(=O)c2ccccc2)cc1OC` is -2.09%.
Take `CCSc1nc2n(n1)C(c1ccc(Br)cc1)C1=C(O)CCCC1=N2` (stereo not shown): the “% Inhibition @ 10 uM” value was found to be 1.62%.
Turning to `COc1ccc(C(=O)Nc2ccc(S(=O)(=O)Nc3cc(C)on3)cc2)cc1`, the “% Inhibition @ 10 uM” value is recorded as 4.11%.
With `O=S(=O)(CCO)c1ccc2oc(O)nc2c1` the figure was 2.55%.
The figure for `O=C(NCc1ccc(-n2cccc2)cc1)c1nc(-c2cccs2)no1` is -0.403%.
For the compound `Cc1ccc(-c2cn3c(n2)sc2cc(C(=O)NCc4ccccn4)ccc23)cc1`, the “% Inhibition @ 10 uM” value is -4.18%.
The figure for `COc1ccc(C(=O)Nc2cc(C)ccc2C)cc1Br` is -4.02%; for `CC(CCCC(C)(C)O)CC1OCCO1` (stereo not shown) it is 6.8%; for `CC(C)Oc1ccccc1C1CC(=O)NC1=O` (stereo not shown) it is -3.93%.
With `CSCCCN(C)CCc1ccccn1` the figure was -7.56%.
The figure for `O=C(NC1CCS(=O)(=O)C1)/C(=C\c1ccc(F)cc1)NC(=O)c1ccccc1` (stereo not shown) is -0.988%; for `COc1ccc(Cl)cc1-n1nnc(-c2nc(-c3cccnc3)no2)c1N` it is 4.73%; for `O=C(O)CCN(CC(=O)O)C(=O)c1ccccc1` it is 2.59%.
For `CC(=O)c1c(C)oc2ccc(N(C(=O)c3ccncc3)S(=O)(=O)c3c(C)cc(C)cc3C)cc12`, the “% Inhibition @ 10 uM” value was 5.03%.
As to `C=CCN1C(=O)/C(=C/c2ccc3ccccc3n2)S/C1=N/S(=O)(=O)c1ccc(C)cc1`, the “% Inhibition @ 10 uM” value was 4.84%.
With `COc1cc(CNCC2CCCO2)ccc1OCc1ccc(Cl)cc1` (stereo not shown) the figure was -3.45%; with `COC(=O)c1c(-c2ccc(F)cc2)noc1N`, 2.34%.
The figure for `Cc1nn(CC(=O)Nc2cc(C)n(Cc3ccc(F)cc3)n2)c(C)c1Cl` is -1.85%.
The figure for `COc1ccc(NC(=O)c2ccccc2OC)cc1OC` is 5.09%; for `CCOC(=O)N1CCN(S(=O)(=O)c2cc(C)c(C)cc2OC)CC1` it is 0.64%.
With `Cc1cccc(OCc2nc(-c3nonc3N)no2)c1C`, the “% Inhibition @ 10 uM” value amounted to 3.96%.
The figure for `CCOC(=O)c1c(C)c(-c2ccccc2)n(CC(=O)Nc2ccc(C)cn2)c1C` is -1.66%; for `O=c1c2cccnc2nc(SCc2cccc(F)c2)n1Cc1ccccc1` it is -1.66%; for `CC(O)c1ccc(NC(=O)c2cnn3c2NC(c2cccs2)CC3C(F)(F)F)cc1` (stereo not shown) it is -4.4%.
As for `CNC(=O)Cn1cccc1C(=O)c1ccccc1`, the “% Inhibition @ 10 uM” value is given as 4.33%.
With `OCCN1CCN(C(c2cccc(Cl)c2)c2ccccc2Cl)CC1` (stereo not shown) the figure was -8.26%.
With `O=C(C1=C(O)C(=O)N(CCc2c[nH]c3ccccc23)C1c1cccnc1)c1ccccc1` (stereo not shown) the figure was 2.13%; with `COc1ccc(CCNCc2c(C(=O)O)n(C)c3ccccc23)cc1OC`, 3.54%; with `COc1ccc(/C=C2\S/C(=N/c3cccc(C(=O)O)c3)N(C)C2=O)cc1C`, -1.57%.
On to `Cc1ccc(/C=C2\CCCC3=C2Nc2nnnn2C3c2ccc(C)cc2)cc1` (stereo not shown), for which the “% Inhibition @ 10 uM” value came out at 3.32%.
With `CCC1CCCCN1C(=O)c1cc(-c2ccc(F)cc2)on1` (stereo not shown) the figure was 1.37%; with `COc1ccc(NC(=O)[C@@H]2C3C=CC(O3)[C@@H]2C(=O)O)cc1` (stereo partly shown), -2.29%; with `COCCNC(=O)CS(=O)Cc1nc(-c2cccs2)oc1C` (stereo not shown), 3.19%.
The figure for `CC(C)(COC(=O)c1cccs1)NC(=O)C12CC3CC(CC(C3)C1)C2` is -0.403%; for `CCc1ccc(-n2c(C)nc3cc(C(=O)NCc4cccnc4)ccc32)cc1` it is -0.256%.
With `COc1cc(C(=O)NC(C(=O)O)C(C)C)cc(OC)c1OC` (stereo not shown) the figure was -4.06%.
As to `CCCC(=O)Nc1ccc(Cl)c(NC(=O)c2cccnc2)c1`, the “% Inhibition @ 10 uM” value is reported as 0.528%.
The figure for `Cc1cccc2c(O)c(NC(=O)NCc3ccc(C(F)(F)F)cc3)cnc12` is -6.43%.
The figure for `CCOC(=O)c1sc(N2C(=O)C(O)=C(C(=O)c3ccc(F)cc3)C2c2ccc(OC)cc2)nc1C` (stereo not shown) is 5.37%; for `COc1cc(OC)c(CN2CCCCCC2)cc1Br` it is -6.36%.
The figure for `CC(=O)NC(C)c1nc2ccccc2n1CC(C)C` (stereo not shown) is -7.35%.
`C/C(=N\N=C\c1c[nH]c2ccccc12)c1nnn(-c2nonc2N)c1C`: the “% Inhibition @ 10 uM” value is -3.48%.
The figure for `CCOC(=O)c1c(NC(C)=O)sc2c1CCC(Sc1ccccc1)C2=O` (stereo not shown) is 0.989%; for `O=C(CCc1nnc2n(CCc3ccccc3)c(=O)c3ccccc3n12)NCc1ccccc1Cl` it is -0.692%; for `C=C(C)CN(CC)Cc1cc([N+](=O)[O-])ccc1Cl` it is -1.78%.
With `OCCN1CCN(Cc2ccccc2F)CC1` the figure was -13.2%.
As to `Cc1ccc(CNC(=O)CSCc2ccc(C)cc2)cc1`, the “% Inhibition @ 10 uM” value is -8.73%.
The figure for `O=C1C(Cl)=C(NCC2CCCO2)C(=O)N1Cc1ccccc1` (stereo not shown) is 4.75%; for `Cc1ccccc1-c1nc(CS(=O)(=O)CC(=O)NCC2CCCO2)c(C)o1` (stereo not shown) it is -3.7%; for `OC(c1ccccc1)(c1ccccc1)C1CCCCCN1` (stereo not shown) it is 1.57%.
The figure for `Cc1ccc(N2C(=O)CC(NCCN3CCOCC3)C2=O)cc1` (stereo not shown) is -7.61%; for `O=C(CN1C(=O)c2ccccc2C1=O)Nc1cnc2ccccc2c1` it is -3.21%.
With `COc1ccc(NC(=O)CCCOc2ccc(Cl)cc2Cl)c(OC)c1` the figure was -0.865%; with `COc1ccc(C2C3=C(O)CC(C)(C)CC3=Nc3ccccc3N2C(=O)C(F)(F)F)cc1` (stereo not shown), -1.44%.
As to `Cc1sc(NC(=O)C2C3CCC(C3)C2C(=O)O)c(C(N)=O)c1-c1ccccc1` (stereo not shown), the “% Inhibition @ 10 uM” value is reported as -2.6%.
With `Cc1ccccc1NS(=O)(=O)c1ccc(C2CCCCC2)cc1` the figure was -5.41%; with `COc1ccc(-c2noc(CCC(=O)NCC3CCCO3)n2)cc1` (stereo not shown), -2.21%; with `CC(C)(C)NC(=O)C1CCN(S(=O)(=O)c2ccccc2)CC1`, -7.56%.
With `CCOC(=O)C1=C(Cn2nnc(C(=O)OC)c2C(=O)OC)NC(=O)NC1c1ccccc1` (stereo not shown) the figure was 0.813%.
Consider `O=C1c2ccccc2C(=O)N1c1cc([N+](=O)[O-])ccc1F`, for which the “% Inhibition @ 10 uM” value amounted to 4.51%.
The figure for `COc1ccc(CC(=O)n2nc(-c3ccccc3)nc2NCc2ccco2)cc1` is -4.78%; for `CCOc1ccc(CC(=O)Nc2ccccc2C(N)=O)cc1OCC` it is 1.28%.
In the case of `CC(=O)OC(C)(C#CCN1CCOCC1)C(C)(C)C` (stereo not shown), the “% Inhibition @ 10 uM” value was -2.32%.
With `CC(C)Cc1ccc(C#N)c(SCC(N)=O)n1`, the “% Inhibition @ 10 uM” value is listed as -0.13%.
With `COc1ccc(-n2c(CNCc3ccco3)nc3ccccc3c2=O)cc1` the figure was -1.51%.
The figure for `O=C(CCCn1ncn2c(cc3occc32)c1=O)NCc1ccccn1` is -2%; for `COc1ccc(C(=O)C2=C(O)C(=O)N(Cc3cccnc3)C2c2ccc(C)cc2)cc1C` (stereo not shown) it is 4.11%; for `CCc1ccc(NC(=O)c2c(-c3ccccc3)noc2C)cc1` it is -4.39%.
The figure for `Cc1cccc(C)c1NC(=O)Nc1cccc(Cl)c1` is -2%.
On to `Cc1cc(C)cc(Oc2nc3c(C)cccn3c(=O)c2/C=C(\C#N)C(=O)NCc2ccccc2)c1`, for which the “% Inhibition @ 10 uM” value turned out to be 2%.
As to `O=C(CCCCC(=O)Nc1cccnc1Cl)Nc1cccnc1Cl`, the “% Inhibition @ 10 uM” value is on record as -1.37%.
The figure for `CCc1nc(C)c(C#N)c2cc(OC)c(OC)cc12` is -1.86%.
With `O=C(c1ccco1)N1CCN(C/C=C/c2ccccc2)CC1`, the “% Inhibition @ 10 uM” value was -1.98% and 2.32%.
With `CN1CCN(c2ccc3nnc(CCC(=O)NCC4CCN(Cc5ccc(F)cc5)CC4)n3n2)CC1` the figure was -0.826%; with `CO/C(O)=C1/C(C)=NC2=C(C(=O)CC(C)(C)C2)C1c1ccc(-c2ccccc2)cc1` (stereo not shown), 2.51%.
With `Cc1ccc(C2=NC(=O)OC2(C)C)c(C)c1` the figure was 4.88%; with `Cc1c(C(=O)N2CCN(C(c3ccccc3)c3ccccc3)CC2)sc(N)c1C#N`, 4.88%; with `COCCCNC(=O)c1ccc2c(c1)ncn2-c1ccc(C)cc1C`, 1.42%.
In the case of `N#Cc1c(NC(=O)c2ccc(S(=O)(=O)c3ccccc3)cc2)sc2c1CCC2`, the “% Inhibition @ 10 uM” value was -2.87%.
For the compound `O=C(NCc1ccc2c(c1)OCO2)[C@@H](c1ccccc1)N1Cc2ccccc2C1=O`, the “% Inhibition @ 10 uM” value was 4.54%.
With `CCOc1ccc(CNCc2ccccn2)cc1` the figure was 0.032%; with `O=C1c2cccnc2C(=O)N1c1ccc(OC(F)(F)F)cc1`, -3.95%; with `c1cc(-c2nc3ccccc3[nH]2)nc(-c2nc3ccccc3[nH]2)c1`, -4.78%.
For `Cc1cc(C)c(S(=O)(=O)NCc2nc3nc(C)cc(C)n3n2)c(C)c1`, the “% Inhibition @ 10 uM” value is on record as -7.97%.
With `CC(C)CC(NC(=O)c1ccc(NC(=N)N)cc1)C(=O)NCC#N` (stereo not shown) the figure was 5.05%; with `Clc1ccccc1-c1nc2nnnn2c2ccc(Br)cc12`, 8.98%; with `CCOc1ccc2nc(C)c(CN(C)Cc3ccccc3)c(O)c2c1`, -1.25%.
The figure for `Cc1cccc(Oc2nc3ccccn3c(=O)c2/C=C(\C#N)c2nc3ccccc3[nH]2)c1` is 6.78%.

These data come from publication PMC6919601, “Identification of Plasmodium dipeptidyl aminopeptidase allosteric inhibitors by high throughput screening” (PLoS ONE, 2019).
